# Out of some 360,000 compounds screened, about 6,000 (1.7%) were called active. This list was built around the results that the source calls inconclusive (neither active nor inactive); the mix of calls is not that of the screen. Calls follow the shape of the dose curve; as a rule, active = well fitted cell-killing curve with a large enough effect; inconclusive = small, poorly fitted or top-dose-only effect, or effect the other way; inactive = flat fitted curve, though single readings scatter. No potency is given beside an inconclusive call; the fits are too rough.
# Experiment: qHTS for induction of synthetic lethality in tumor cells producing 2HG: qHTS for the HT-1080-NT fibrosarcoma cell line;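 also: NT is the 2HG producing partner of a matched IDH1 knockdown line; nearly all actives have a fitted effect of over 55% in size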
# Conditions: HT-1080-NT fibrosarcoma viability, CellTiter-Glo ATP luminescence, 48 h; series mostly up to 46.1 µM
# Procedure, shortened: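 HT-1080-NT fibrosarcoma cells (2HG-overproducing), 750 cells/well in RPMI with 5% FBS, dosed after 2 h and incubated 48 h at 37C. CellTiter-Glo luminescence normalized to DMSO and no-cell wells; concentration-response curves fitted and classed.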
# Potency is read from the fitted curve at half-maximal effect; tags tell the direction and shape of the fitted curve.
row,Structure (SMILES),Potency
1,Cc1nn(S(=O)(=O)c2ccc([N+](=O)[O-])cc2)c(C)c1Sc1ccccc1,"inconclusive [cytotoxic, partial curve, poor fit]"
2,Cc1nc(N/N=C/c2ccc(O)cc2O)cc(N2CCOCC2)n1,"inconclusive [cytotoxic, full curve]"
3,CCCCCNC(=O)C(c1cc2ccccc2o1)n1c(=O)c(-c2ccccc2)nc2ccccc21 (configuration not stated),inactive
4,CCCN1C2CCCC1CC(NC(=O)C1CCCCC1)C2 (configuration not stated),"inconclusive [rising, partial curve]"
5,COc1ccc(Cl)cc1NC(=O)Nc1ccc(Br)cn1,"inconclusive [cytotoxic, single point]"
6,OC(c1ccc(-c2ccccc2)cc1)c1ncc(-c2ccccc2Cl)[nH]1 (configuration not stated),"inconclusive [cytotoxic, single point]"
7,COc1ccc(CN(C)C(=O)c2cccc(NC(=O)CC3SC(N4CCCCC4)=NC3=O)c2)c(OC)c1 (configuration not stated),"inconclusive [cytotoxic, partial curve, poor fit]"
8,COc1cccc(Oc2cn[nH]c2-c2ccc(O)cc2O)c1,"inconclusive [cytotoxic, single point]"
9,COc1ccc(NC(=O)Nc2cccc3c2O[C@@H](CN(C)CC2CCCCC2)[C@@H](C)CN([C@H](C)CO)C3=O)cc1,inactive
10,C[C@H](NC(=O)c1ncn(Cc2ccccc2)c1C(=O)N[C@@H](C)c1ccccc1)c1ccccc1,"inconclusive [cytotoxic, single point]"
11,Fc1ccccc1N1CCN(CC2CCCCC2)CC1,inactive
12,CN(Cc1c(F)cccc1Cl)C(=O)c1ccc(NS(=O)(=O)c2ccc3[nH]c(=O)[nH]c3c2)cc1,inactive
13,Cc1ccccc1-c1ncc(CN2CCN(C3CCCC3)C(CCO)C2)cn1 (configuration not stated),inactive
14,COC(=O)[C@]12CCCCC=C1N(Cc1cccc3ccccc13)C(=O)[C@H](CC(=O)NCc1cccc(C(F)(F)F)c1)C2,"inconclusive [cytotoxic, single point]"
15,C=CCn1cc(/C=N/NC(=O)COc2cccc3cccnc23)c2ccccc21,"inconclusive [cytotoxic, single point]"
16,CCCC1=C(C(=O)OCC)C(c2cc(Cl)cc(OC)c2OCc2ccccc2)NC(=O)N1 (configuration not stated),"inconclusive [cytotoxic, single point]"
17,CC[C@@H]1CC2=C(C(=O)OC(C)(C)O2)[C@@H](CC)O1,inactive
18,Cc1ccc(-c2nc(NCCCN(C)C)c3ccccc3n2)cc1,"inconclusive [cytotoxic, partial curve]"
19,COc1ccccc1CCN=C(N)NS(=O)(=O)c1ccccc1,inactive
20,N=c1sccn1CC(=O)NC(c1ccccc1)c1ccccc1,inactive
21,C[C@H](O)[C@@H]1CN2CCc3c([nH]c4ccccc34)[C@@H]2C[C@@H]1N(C)C(=O)Nc1cc(Cl)cc(Cl)c1,"inconclusive [cytotoxic, single point]"
22,COc1ccc2cc3cc(C(=O)NCc4cccnc4)oc3nc2c1,"inconclusive [cytotoxic, partial curve, poor fit]"
23,Cc1nonc1NC(=O)CSc1nc(C2CCCCC2)nc2ccccc12,inactive
24,COc1ccc(CNC(=O)C(c2ccco2)N(C(=O)Cc2cccs2)c2cccnc2)cc1 (configuration not stated),inactive

row,Structure (SMILES),Potency
1,Cn1nc([N+](=O)[O-])nc1S(C)(=O)=O,active: 16.4 µM
2,CC1CCc2c(sc(NC(=O)/C=C/c3cccs3)c2C(=O)O)C1 (configuration not stated),inactive
3,CCc1nc2ccc(C(=O)N3CCN(C(=O)c4ccco4)CC3)cn2c1N(C=O)Cc1ccc(OC)cc1,"inconclusive [rising, single point]"
4,COc1cccc(CCn2c(N)cc(=O)[nH]c2=S)c1OC,inactive
5,Clc1cccc(Cl)c1NC1=NCCC1,inactive
6,O=C(CN1C(=O)/C(=C\c2ccccc2Cl)Sc2ccccc21)NCCCN1CCOCC1,"inconclusive [cytotoxic, single point]"
7,CC(C)N(C)S(=O)(=O)c1ccc(NC(=O)CSC(=S)N2CCCC2)cc1,inactive
8,CC(C)(C)c1sc(N)nc1-c1ccccc1,"inconclusive [cytotoxic, single point]"
9,CC(c1nccs1)N(C)C(=O)CCc1nnc(-c2ccc(-c3ccccc3)cc2)o1 (configuration not stated),inactive
10,COC(=O)[C@@]1(Cc2ccc(OC)cc2)[C@H]2c3cc(C(=O)N4CCCC4)n(Cc4ccsc4Br)c3C[C@H]2CN1C(=O)c1ccccc1,"inconclusive [cytotoxic, single point]"
11,CC(=N)c1c(O)cc(C)oc1=O,inactive
12,COc1ccc(N(CC(=O)Nc2cc(OC)c(OC)cc2C(=O)O)S(=O)(=O)c2c(C)noc2C)cc1,inactive
13,CCOC(=O)C1CCN(C2CCN(C(=O)c3oc4c(C)c(C)ccc4c3C)CC2)CC1,"inconclusive [cytotoxic, single point]"
14,O=S(=O)(c1ccccc1F)N(Cc1ccco1)Cc1nnc(-c2ccccc2Br)o1,inactive
15,CC(=O)c1cccc(-n2nnnc2SCC(=O)Nc2ccccc2N2CCCCC2)c1,inactive
16,O=C(NC1CCCC(C(F)(F)F)C1)c1ccc([N+](=O)[O-])o1 (configuration not stated),"inconclusive [cytotoxic, single point]"
17,O=C(CCl)NNC(=O)c1c(O)c2ccccc2[nH]c1=O,active: 11.6 µM
18,CNC(=S)N1CCN(c2ccc(OC)cc2)CC1,"inconclusive [rising, single point]"
19,COc1ccc(OC)c(NC(=O)c2cc(-c3cc(C)ccc3O)n[nH]2)c1,"inconclusive [cytotoxic, single point]"
20,C=CCOc1c(CNC2CCCC2)cc(Cl)cc1OC,inactive
21,CCN1CCN(c2nc(N)c([N+](=O)[O-])c(Nc3ccc(C)c(C)c3)n2)CC1,inactive
22,COC(=O)c1ccccc1NC(=S)NC(NC(=O)c1ccco1)C(Cl)(Cl)Cl (configuration not stated),"inconclusive [cytotoxic, single point]"
23,CN1CCN(CC2(O)CCN(S(=O)(=O)c3ccc(Cl)cc3)CC2)CC1,inactive

# Reference: PubChem BioAssay AID686970 (National Center for Advancing Translational Sciences (NCATS), 2013)
